The list shows a part of the results. These are noisy estimates, calculated here from bound and input reads.
Target: T1, Pho4 (S. cerevisiae) (UniProt P07270)
T1 sequence: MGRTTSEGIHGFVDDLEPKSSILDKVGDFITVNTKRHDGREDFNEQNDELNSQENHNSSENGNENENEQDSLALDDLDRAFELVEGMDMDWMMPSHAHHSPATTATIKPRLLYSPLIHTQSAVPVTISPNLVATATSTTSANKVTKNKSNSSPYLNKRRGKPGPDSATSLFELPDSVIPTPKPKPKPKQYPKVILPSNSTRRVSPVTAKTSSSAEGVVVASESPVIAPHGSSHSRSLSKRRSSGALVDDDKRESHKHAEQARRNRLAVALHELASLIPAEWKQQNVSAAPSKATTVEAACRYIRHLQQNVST
Test: relative binding free energy (BET-seq); higher = weaker binding
Settings: reference: library average

Row | Sequence | relative binding free energy
1 | AGCAACACGTGGAGGG | -0.02 kcal/mol
2 | TGCTTCACGTGGGGTT | 0.01 kcal/mol
3 | CATGGCACGTGGTGCG | -0.2 kcal/mol
4 | TGGGACACGTGTCTGG | 0.03 kcal/mol
5 | GTATGCACGTGTTCAG | -0.05 kcal/mol
6 | TTGTCCACGTGGATAT | 0.15 kcal/mol
7 | GGGGGCACGTGGACCG | -0.15 kcal/mol
8 | TGTTTCACGTGTGTTT | 0.28 kcal/mol
9 | GAGACCACGTGGTTGG | 0 kcal/mol
10 | GTGTTCACGTGCTTCG | 0.32 kcal/mol
11 | TCTAGCACGTGGGTTC | -0.1 kcal/mol
12 | TCGTCCACGTGGGTGG | -0.18 kcal/mol
13 | AGGGGCACGTGACACG | 0.04 kcal/mol
14 | GTGATCACGTGATGGT | 0.24 kcal/mol
15 | TTTGGCACGTGATCGC | 0 kcal/mol
16 | TTAAGCACGTGAGTTT | 0.2 kcal/mol
17 | ATGTTCACGTGTCTCT | 0.35 kcal/mol
18 | GGTCACACGTGGTGGA | 0.18 kcal/mol
19 | ATTTGCACGTGCGTTT | -0.07 kcal/mol
20 | TTGATCACGTGGTAAG | 0.14 kcal/mol
21 | TTTATCACGTGGCGCG | 0.03 kcal/mol
22 | TTAAACACGTGTAGAT | 0.21 kcal/mol
23 | TGGTGCACGTGTCCAT | 0 kcal/mol

Row | Sequence | relative binding free energy
24 | AGTATCACGTGGTGAA | -0.06 kcal/mol
25 | TTACTCACGTGCGGTT | 0.16 kcal/mol
26 | GGTCTCACGTGATCGG | 0.36 kcal/mol
27 | CATATCACGTGATGGG | 0.24 kcal/mol
28 | ATGACCACGTGGGGGC | -0.16 kcal/mol
29 | ATGTGCACGTGGATCA | -0.03 kcal/mol
30 | AGTGTCACGTGGGCAT | -0.06 kcal/mol
31 | GGGGTCACGTGTTACT | 0.34 kcal/mol
32 | TTTGCCACGTGATGTA | 0.04 kcal/mol
33 | AATTGCACGTGTACGG | 0.03 kcal/mol
34 | ATCTACACGTGTTTAT | 0.24 kcal/mol
35 | GGGGGCACGTGGCGAC | -0.2 kcal/mol
36 | CGTGTCACGTGGTCAG | -0.09 kcal/mol
37 | GGATCCACGTGAGGTG | 0.26 kcal/mol
38 | GGATTCACGTGGTTAG | 0.28 kcal/mol
39 | TTTATCACGTGGTTTA | 0.13 kcal/mol
40 | TTACGCACGTGTGGTT | -0.06 kcal/mol
41 | TTGGGCACGTGAGGCC | 0.1 kcal/mol
42 | TTGAGCACGTGGGAAT | 0.02 kcal/mol
43 | CTGGTCACGTGATATG | 0.14 kcal/mol
44 | GGGAGCACGTGCGGGA | -0.13 kcal/mol
45 | ATTTGCACGTGTCATG | 0.14 kcal/mol
46 | ATACTCACGTGGCGGG | 0.22 kcal/mol

Row | Sequence | relative binding free energy
47 | GTGAACACGTGTATAG | 0.08 kcal/mol
48 | GGAGCCACGTGGTATT | -0.05 kcal/mol
49 | GTTGTCACGTGAATTG | 0.26 kcal/mol
50 | AATGGCACGTGACGAG | 0.04 kcal/mol
51 | GGTTACACGTGGCTTA | 0.12 kcal/mol
52 | GGGGTCACGTGTAGAG | 0.01 kcal/mol
53 | TGATACACGTGTTGGC | 0.07 kcal/mol
54 | TATTGCACGTGAGGAT | 0.14 kcal/mol
55 | GTATGCACGTGTGCTA | 0.07 kcal/mol
56 | ACGTGCACGTGGTGTT | -0.12 kcal/mol
57 | CTCTTCACGTGGATGT | 0.33 kcal/mol
58 | GGGCTCACGTGCTTTT | 0.3 kcal/mol
59 | GTTGTCACGTGGGTGC | 0.06 kcal/mol
60 | AGGGACACGTGTAGGC | 0.24 kcal/mol
61 | TGGTGCACGTGTAGGG | -0.02 kcal/mol
62 | AGGCTCACGTGTTTTA | 0.27 kcal/mol
63 | GGGGTCACGTGGGAGG | 0.08 kcal/mol
64 | TTGTACACGTGGGCTC | 0.02 kcal/mol
65 | ATGGGCACGTGACGTA | -0.03 kcal/mol
66 | GTCTTCACGTGAGTGA | 0.42 kcal/mol
67 | GGATTCACGTGTTAAT | 0.19 kcal/mol
68 | TTACTCACGTGCTTGT | 0.2 kcal/mol
69 | AGAGTCACGTGTTGGG | 0.17 kcal/mol

Row | Sequence | relative binding free energy
70 | GTTGTCACGTGTTGGA | 0.23 kcal/mol
71 | TAGCGCACGTGCGGTG | -0.17 kcal/mol
72 | ACATGCACGTGGGTGG | -0.19 kcal/mol
73 | AGGTGCACGTGGGGTT | -0.14 kcal/mol
74 | TGACTCACGTGAGGCG | 0.33 kcal/mol
75 | GATGACACGTGGATTG | 0.1 kcal/mol
76 | TTCAACACGTGTATTG | 0.15 kcal/mol
77 | CTGGTCACGTGGGTCT | -0.04 kcal/mol
78 | GACGTCACGTGGTCGG | 0.07 kcal/mol
79 | TCGAGCACGTGTTATG | -0.2 kcal/mol
80 | ATTAGCACGTGATGAT | 0.15 kcal/mol
81 | GTAGGCACGTGGTTGC | -0.17 kcal/mol
82 | ATGGACACGTGTTGTA | -0.03 kcal/mol
83 | TCAGACACGTGTTATG | 0.12 kcal/mol
84 | TTATACACGTGCTGTG | -0.06 kcal/mol
85 | ATATACACGTGAAGGT | 0.22 kcal/mol
86 | GAATGCACGTGGTTGG | 0.01 kcal/mol
87 | GATTACACGTGGTGGA | 0.12 kcal/mol
88 | GAGGGCACGTGTAGCA | -0.04 kcal/mol
89 | TTAGCCACGTGGTGCT | -0.17 kcal/mol
90 | ATGGTCACGTGGCAAT | -0.01 kcal/mol
91 | TGTACCACGTGGGAGT | -0.05 kcal/mol
92 | ATTGGCACGTGAGAGG | 0.07 kcal/mol

Row | Sequence | relative binding free energy
93 | TTGTACACGTGCGTAT | 0 kcal/mol
94 | GTACGCACGTGTATGG | -0.07 kcal/mol
95 | AAGGGCACGTGCTTGG | -0.14 kcal/mol
96 | GTGGGCACGTGCAATG | -0.09 kcal/mol
97 | TTATGCACGTGCGTAA | -0.13 kcal/mol
98 | TTAGGCACGTGTTTAT | -0.14 kcal/mol
99 | ATATTCACGTGTTAAG | 0.13 kcal/mol
100 | GGGTGCACGTGTTTGT | 0 kcal/mol
101 | ATGAGCACGTGAATGG | 0.21 kcal/mol
102 | TTTGTCACGTGGACAG | -0.08 kcal/mol
103 | TCGGGCACGTGATTTG | 0.06 kcal/mol
104 | AGGGCCACGTGGTGTC | -0.24 kcal/mol
105 | TAGTACACGTGGGTGC | -0.2 kcal/mol
106 | TTGGTCACGTGAACAT | 0.17 kcal/mol
107 | GGGGTCACGTGTTGAC | 0.15 kcal/mol
108 | TAGCGCACGTGGGCAG | -0.32 kcal/mol
109 | TCTAGCACGTGTCAGG | 0.07 kcal/mol
110 | AATTGCACGTGGGGCT | -0.18 kcal/mol
111 | GTTGTCACGTGTGCAG | 0.14 kcal/mol
112 | ATTCGCACGTGTTGTG | -0.04 kcal/mol
113 | AGTGTCACGTGAGCGA | 0.27 kcal/mol
114 | AGGGGCACGTGACTGT | -0.12 kcal/mol
115 | TTAGTCACGTGTGCGT | 0.05 kcal/mol

From the BET-seq Pho4 binding data (Le et al. 2018)
